Assay results reported in the supplement of paper PMC3334620.
Over roughly 33,000 sequences, “E-score (-0.5 to 0.5)” has its median near -0.036; the highest 2% begin near 0.37. Some of the results follow.

Molecular target: T1, Yer064c (UniProt P40041)
T1 sequence: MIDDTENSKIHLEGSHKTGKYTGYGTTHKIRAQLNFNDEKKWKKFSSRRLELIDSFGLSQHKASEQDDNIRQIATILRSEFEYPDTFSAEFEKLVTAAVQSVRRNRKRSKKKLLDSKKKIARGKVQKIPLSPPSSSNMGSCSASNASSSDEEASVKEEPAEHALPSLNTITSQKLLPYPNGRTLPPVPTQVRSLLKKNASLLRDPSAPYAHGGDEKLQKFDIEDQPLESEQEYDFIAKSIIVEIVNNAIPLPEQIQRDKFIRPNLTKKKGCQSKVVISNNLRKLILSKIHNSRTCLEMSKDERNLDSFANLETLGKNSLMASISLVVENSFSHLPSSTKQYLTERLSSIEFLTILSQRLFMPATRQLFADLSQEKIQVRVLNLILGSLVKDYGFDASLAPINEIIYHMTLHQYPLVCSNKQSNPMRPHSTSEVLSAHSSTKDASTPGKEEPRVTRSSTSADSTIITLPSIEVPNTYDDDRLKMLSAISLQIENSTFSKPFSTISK
Assay: PBM E-score (8-mer binding enrichment) (E-score (-0.5 to 0.5)); higher = stronger / more preferred TF binding; most listed sequences are background and not binding sites
Settings: protein concentration: 200 nM; construct: GST-full length
In short: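 Full-length yeast transcription factors or their DNA-binding domains, GST-tagged and expressed with PURExpress, were applied at about 100-200 nM to universal all-10-mer Agilent arrays. These arrays had been made double-stranded by primer extension on fresh or once-stripped slides. Detection used fluorescent anti-GST, normalisation used masliner, and E-scores for ungapped eight-base words pooled with reverse complements came from the Universal PBM Analysis Suite.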

Sequence	PBM E-score
CCTTGCGC	-0.233
ACAGCAGA	-0.0985
CCAAAGGG	-0.035
GGACATCC	-0.414
TTAATGAA	0.0456
GCTTCCCA	-0.284
CTATCAAC	0.0323
ATATCGAT	0.0845
AAAGCTTC	-0.364
CTATGCTA	0.0143
ATGTTGAC	0.273
GAGTCTAC	0.285
CAGGGGGA	-0.263
GTTTCTAA	-0.00076
CAGTGCAA	0.106
GGCGTTTA	-0.0676
GTTTACTA	0.0459
CAAATTTG	0.13
TACACCCA	0.0364
ACCAGTCA	0.369
GTTGACGA	0.126
CACCATAC	-0.108
ATAAATTA	0.175
CCAATCCC	-0.277
CAACTCTC	-0.00777

Sequence	PBM E-score
CGTATGTC	0.036
ACTATCTC	0.212
AAGTTAAC	0.172
ATCGTTAA	0.0301
CTATTTTA	0.085
GTAATGTA	-0.0594
AGTGGTCC	-0.0197
CCTGGTAC	-0.0536
CCAACAAG	-0.187
CGTTACAG	0.00367
AGGGTTCA	0.0989
GTTACACA	0.272
ATCATGTC	0.27
ATAATAGG	-0.107
ACTGTACT	0.0382
CTCTATTA	0.0778
CAGAGGGG	-0.132
AAGGCTAG	-0.0501
ACCCTGTA	-0.189
CGTTGGCC	-0.304
TCGGGGAA	-0.156
CCCACGAC	0.135
AATTGAGC	0.0445
CCAACTCC	-0.102
CGGGTTAG	-0.123

Sequence	PBM E-score
AGTCCGCG	0.188
AAGGTCAG	0.0065
GGGAACAA	-0.216
CGAGGGAA	-0.0997
CTATTGGC	-0.216
GAGTGAGC	0.0867
AATTTCAC	-0.0484
ACTCGTCT	0.233
ACATCTTA	-0.0886
GCGGAGCA	-0.256
AAGCACTC	-0.189
CGCATAGC	-0.218
ACACTGTC	-0.178
ACGAAGAT	0.158
GAGAATTA	-0.167
AGAATCCA	-0.0782
ACCTCCGG	0.0501
AAGATATT	0.00236
GTATGTTA	0.0292
GATTAGTA	0.277
CGACTCGC	0.361
GATTAATA	0.325
TAAAACAA	0.107
GGGGAATA	-0.328
ATAACGAC	0.126

Sequence	PBM E-score
ACCAGACC	-0.0038
CCAACGAC	-0.0267
GTCTCAGA	0.241
CGATAAAC	-0.175
GTACCGTA	-0.186
ACTGACCT	0.159
CAAACGTA	0.0761
GATTGGGC	-0.0362
GGAAAACA	0.0344
CTCTATCA	-0.0639
ATGTTTTG	0.0323
CAGTACGG	0.0228
AGGCTACC	-0.0969
CGCTATAC	-0.175
GCTTGCCC	-0.427
GCGTCAGC	-0.304
AAATTGCA	-0.128
GTCTACGA	0.0977
AGTTGTCC	-0.122
ATTGAGTC	0.479
GTCTAACA	0.171
CGGAACGA	0.12
GCGCGATA	-0.104
AGGACAAA	0.0448
TGCAGAAA	-0.0306

Sequence	PBM E-score
TCGGGACA	0.0953
AGTAGGTG	0.0443
CATCTATC	-0.165
AAACCGCA	-0.057
GACCCTGA	0.00081
CACGTTCA	-0.235
CCCGGTTC	-0.00689
CCGGCTTA	-0.221
AAACCCGT	-0.274
CCCTACAG	-0.173
GATTCAGA	0.389
ACGCTTCA	-0.168
ATCTTCAC	0.0726
ACATATGT	-0.22
AGCTCCCC	-0.0935
ACAGCGGC	-0.133
CGATCTGA	0.125
ACGGTGTC	-0.112
CTCTCCAG	-0.183
GACCGCTC	-0.302
CATGGATC	0.0319
AGTATGCC	-0.109
CTAGCTCA	-0.0873
AGGAGCAA	-0.0586
CTGGTCGA	0.0583

Sequence	PBM E-score
AATTCGAA	0.0283
GATAGTTA	-0.0509
ACGGTTTC	-0.26
ACGTCTCA	0.0883
GCACATAC	-0.187
CACGTGAG	0.0942
CCGCAAAG	-0.0895
GCCCGATA	-0.117
CGTAGTAA	-0.0636
AATGCGAT	0.102
ACAGACGA	0.0376
AATCCAGG	-0.0276
TCCGAGCA	0.132
AAGATATG	0.235
GAAGGCAA	-0.216
ACCTAGCA	-0.218
CCAAAGGC	-0.251
AGCCAATC	-0.068
GCTATGAC	0.307
ACGTCAGC	-0.116
CCGTCACG	-0.199
GAGTGGAA	-0.0569
AGGGCCAA	-0.126
ACCCGCAC	-0.0905
TGATTGCA	0.307

Sequence	PBM E-score
GACAAATA	-0.106
AGGACTCG	0.306
CAGGGATC	-0.0249
AGGATTGC	-0.0952
AAATCCCG	-0.21
CAGACGGG	-0.211
ATGATATC	-0.171
CGCCGCTC	-0.201
CCCCACGC	-0.241
ATGAGCCA	0.396
GGATTAAC	0.234
CCCGCCTA	-0.12
CGTCTAGC	-0.0946
AATAAGAC	0.175
AAGCCCGA	-0.0794
ATCGACCA	-0.0913
CGAGAATC	0.117
ACACAATC	0.118
TGTCAGAA	-0.00325
ATGCAACC	-0.254
ACGTTGAA	-0.0933
GCTACAAA	-0.00422
AAGGATGA	0.162
CATGCACG	-0.143
CACTATTC	-0.0863

Sequence	PBM E-score
CTGGACCA	-0.113
AAGAGATG	0.068
AAGTTCGG	-0.176
GGTGCCAA	-0.0963
ACACTTGG	0.0249
ATCGGCTC	-0.013
ACTTCGAG	-0.00878
AGAATTCC	-0.0704
AGGTAGGG	-0.121
AAACATCA	0.026
AGACGTTA	0.0328
GACCTTGA	0.0411
GGGTCTAC	-0.143
GGTCAGGA	-0.138
CTGTTAGA	0.0663
GGATAGCA	-0.0707
CTTCCTAC	-0.295
CTAACTTA	0.0276
GAACCAGC	0.0889
ATAGTGTG	0.0492
GCACCTGC	-0.266
CACGGATC	-0.127
ACCTAAAT	0.057
ATCGCAGA	0.0583
ACTAAGCG	0.2

Sequence	PBM E-score
ACCCTAAC	-0.114
GTGAGTGA	0.225
GACTACAC	0.399
GCCAAAGC	-0.031
AATGATAG	-0.0733
ATCGTTTG	0.219
TACCGACA	-0.00853
AAATGGTC	-0.0743
CGCATTCC	-0.248
AAAGCCAT	0.163
ATCTCAGC	0.0312
AACATCAG	0.0803
CACAGGGC	-0.193
CACGGCAA	-0.0572
CGTGCCCA	-0.23
TACGGAAA	2e-05
ACGACACT	0.0679
AGCCCATC	0.211
ACAGTCGC	0.196
AGGCTCGA	-0.186
CCGACCAA	-0.17
GGGCAGCA	-0.0516
CCACTCTC	-0.198
GTTAATAA	0.117
CTGTCGAC	-0.0328

Sequence	PBM E-score
GCAAGACA	-0.184
TGGCCCAA	-0.31
CCACGGCG	-0.0296
CCGGTGGA	-0.172
ACGAGTGG	-0.0808
AGTGATTG	0.362
ACGTCGTA	-0.13
ATTCTAGA	0.0719
AAGGTAGG	-0.0709
CAGGTCAA	-0.193
GGACGCCC	-0.325
TGGTGAAA	-0.263
AACGGTCT	-0.188
AAACACTG	0.0608
GAGGAAAA	-0.0398
CGATCATA	0.0235
CCAGGTCG	-0.0791
TAAAACCA	0.106
GCATGCAA	-0.121
ATCTGCGC	-0.188
ACGCGCTA	-0.124
CAGGCAAG	-0.0893
CTTCAGTA	0.0859
CGCCGCCC	-0.281
CTGCAGCA	-0.244

Sequence	PBM E-score
ATCCCACA	-0.101
ATTCAGCC	0.0873
ACGGGGTC	-0.286
CGAAAGAC	0.0552
GGTGTAAC	0.05
ACGGCGCA	-0.0171
ACATGAGG	-0.103
ACCGTTGG	-0.106
CATTAGTC	0.421
CTTTTACA	0.0266
GCAGGCCA	-0.0647
AGGGTCTA	-0.153
GAATATGA	0.204
GAAAGAGC	-0.153
CCCAAACG	-0.226
CCCACGGC	-0.171
ATGCACGG	-0.106
CGCTTCAG	-0.167
CATCTTAA	-0.0264
GCACCTCA	-0.0741
AAATGACG	0.0769
AACCTGAG	-0.154
CTCAACGC	-0.164
CGAGGTAG	-0.0916
AGTGCATC	-0.144

Sequence	PBM E-score
ACAACCCA	-0.0889
CGTCGACG	-0.069
GTAGTTGA	0.143
AAGGCGGA	-0.14
AAGGGAGG	-0.186
ACGTTATA	0.0989
AGTGCACC	-0.156
ACACACAG	0.0924
CATGCGGA	-0.0429
CCAGGATA	-0.179
ACAACGGC	-0.148
GTCTACTA	0.162
CGCACCCA	-0.178
CAGCACGC	-0.145
ATGATGAG	0.318
ACCCTCGC	-0.21
CATGAGAG	0.034
ATACAATA	-0.0154
GTGGATCA	0.0498
AGGCGTTG	-0.274
ACACCTCC	-0.0443
CTGATGAC	0.296
ACCAATCT	-0.0242
GCGGATGA	0.13
CTATCGCC	-0.136

Sequence	PBM E-score
AAGCAACT	-0.0838
GGAATTTA	-0.0855
AACCTCCC	-0.167
CGGTGATA	-0.0395
CGCTAATC	0.111
CCGTTAGC	0.00558
CAGATTCC	-0.0951
AAAAAACG	-0.0912
AAATCGTG	0.166
TACCGCGA	0.0749
GTGAAAGA	0.0434
CTGACCTC	-0.00583
AGTAGTTG	0.0575
CACCTCAC	-0.00655
AGGCAGCG	-0.245
ATCAGAAG	0.062
GCCGGACC	-0.251
CTTGTATC	-0.0365
TGAGTGAA	0.109
GATGTCCA	-0.203
GAGATACC	-0.0812
CAAGGAAG	0.017
GTAGGGCA	-0.218
ATCCCTTG	-0.0643
AATCACCC	0.426

Sequence	PBM E-score
GCTGTAAC	0.115
AGAGGGGC	-0.289
AAAGATAC	-0.041
ACCGCCTC	-0.307
CTATTCAG	0.0874
AAGGTCGC	-0.278
ACAGATCT	-0.118
ACGGGACA	-0.204
CAGATTTA	0.168
AAGGCAAC	0.0345
AAGATCCT	-0.00223
GCCCAAGA	-0.156
AATTGAGG	-0.28
ATATATCA	-0.0122
ACCATGAA	0.141
ACCAAACT	-0.129
GTGGTCCA	0.00143
GTGCATAA	0.0645
CGGGCGCC	-0.34
